Measured values from patent US20110124589A1, “INHALED FOSFOMYCIN/TOBRAMYCIN FOR THE TREATMENT OF CHRONIC OBSTRUCTIVE PULMONARY DISEASE” (Gilead Sciences, Inc., priority 2009, published 2011).

Tests used:
E. coli = conditions: 22 isolates; agar dilution; cited from earlier work
E. coli ATCC 25922 = assay: MBC/MIC, broth microdilution
Enterobacter spp = assay: MIC of recent clinical isolates, agar dilution (CMI study); type: cell-based; conditions: 603 isolates
S. aureus = conditions: 16 isolates; agar dilution; cited from earlier work
[1] = system: P. aeruginosa protein synthesis; assay: Protein synthesis, incorporation of 3H amino acids; type: cell-based, P. aeruginosa ATCC 27853; conditions: fosfomycin 6.4 μg/mL, tobramycin 1.6 μg/mL; for T1/2, time to inhibit 50% of protein synthesis: FTI 6.4-1.6 μg/mL, 2% mucin; for protein synthesis inhibition relative to FTI: after 60 and 90 minutes of drug exposure
P. aeruginosa [2] = conditions: cited from earlier work
S. aureus ATCC 29213 [3] = assay: MBC/MIC, broth microdilution
[4] = system: E. coli, Proteus spp., Salmonella spp., Shigella spp., and S. marcescens; conditions: cited from earlier work
P. aeruginosa [5] = assay: MIC, agar-plate dilution (Method A); conditions: Pseudomonas aeruginosa; for MIC50: read-out: MIC50 Mucin (−)
M. catarrhalis = assay: MIC, agar-plate dilution (Method A)
E. faecalis = conditions: 5 isolates; agar dilution; cited from earlier work
S. maltophilia = conditions: 17 isolates; agar dilution; cited from earlier work
P. aeruginosa [6] = assay: microbe, parasite or virus in culture; type: cell-based
P. aeruginosa ATCC 27853 [7] = assay: Bacterial uptake of 3H-tobramycin; type: cell-based; conditions: addition of 10 μg/mL fosfomycin; 3H-tobramycin 2.3 mg/L
S. pneumoniae = conditions: cited from earlier work; for Range of MBC/MIC: 7 strains
P. aeruginosa ATCC 27853 [8] = assay: Single-step spontaneous mutation frequency; type: cell-based; conditions: for MIC: Pseudomonas aeruginosa, ATCC27853; for Mutation Frequency 4X MIC / Mutation Frequency 8X MIC / Mutation Frequency 16X MIC: single exposure, 48 hr
S. aureus ATCC 29213 [9] = assay: Single-step spontaneous mutation frequency; type: cell-based; conditions: for MIC: Staphylococcus aureus, ATCC29213; for Mutation Frequency 4X MIC / Mutation Frequency 8X MIC / Mutation Frequency 16X MIC: single exposure, 48 hr
[10] = system: susceptible P. aeruginosa; conditions: typical values; cited from earlier work
[11] = after parenteral administration; cited from earlier work
[12] = system: S. aureus, S. pneumoniae, P. aeruginosa, E. coli, Klebsiella spp. and H. influenzae strains; conditions: all strains tested; cited from earlier work

C[C@@H]1O[C@@H]1P(=O)(O)O [Fosfomycin]
MIC50 (E. coli): 0.5 µg/mL (≈ 3.62 µM)
MIC90 (E. coli): 2 µg/mL (≈ 14.5 µM)
MIC range (E. coli): 0.25 to 4 µg/mL
MBC/MIC (E. coli ATCC 25922): 8
MIC50 (Enterobacter spp): 2 µg/mL
MIC90 (Enterobacter spp): 32 µg/mL
MIC50 (S. aureus): 2 µg/mL (≈ 14.5 µM)
MIC90 (S. aureus): 4 µg/mL (≈ 29 µM)
MIC range (S. aureus): 0.125 to 16 µg/mL
T1/2, time to inhibit 50% of protein synthesis [1]: 2.42 h
protein synthesis inhibition relative to FTI [1]: poor protein synthesis inhibition
strains against which bactericidal (P. aeruginosa [2]): 78%
Range of MBC/MIC (P. aeruginosa [2]; non-CF, 10 strains): 2-8
MBC/MIC (S. aureus ATCC 29213 [3]): 1
fosfomycin concentrations at which generally inhibited [4]: 64 µg/mL
MIC50 (P. aeruginosa [5]): 64 µg/mL (≈ 464 µM)
MIC (P. aeruginosa [5]; strain COR-003): 16 µg/mL (≈ 116 µM)
MIC (P. aeruginosa [5]; strain COR-021): 8 µg/mL (≈ 57.9 µM)
MIC (M. catarrhalis; Moraxella catarrhalis): 4 µg/mL (≈ 29 µM)
MIC (M. catarrhalis; strain COR-113): 4 µg/mL (≈ 29 µM)
MIC range (E. faecalis): 32 µg/mL (≈ 232 µM)
MIC50 (S. maltophilia): 64 µg/mL (≈ 464 µM)
MIC90 (S. maltophilia): 128 µg/mL (≈ 927 µM)
Mutation Frequency 4x MIC (P. aeruginosa [6]; Mucin + (2%)): 7 × 10^−6
Mutation Frequency 8x MIC (P. aeruginosa [6]; Mucin + (2%)): 3 × 10^−6
Mutation Frequency 16x MIC (P. aeruginosa [6]; Mucin + (2%)): 3 × 10^−6
Mutation Frequency 32x MIC (P. aeruginosa [6]; Mucin + (2%)): 2 × 10^−6
Mutation Frequency 4x MIC (P. aeruginosa [6]; Mucin −): 3 × 10^−5
Mutation Frequency 8x MIC (P. aeruginosa [6]; Mucin −): 8 × 10^−6
Mutation Frequency 16x MIC (P. aeruginosa [6]; Mucin −): 3 × 10^−6
Mutation Frequency 32x MIC (P. aeruginosa [6]; Mucin −): 3 × 10^−6
MIC (P. aeruginosa [6]; Pseudomonas aeruginosa): 4 µg/mL (≈ 29 µM)
increase in 3H-tobramycin uptake relative to the no-fosfomycin control (P. aeruginosa ATCC 27853 [7]): 170%
Range of MBC/MIC (S. pneumoniae): 1-16
strains against which bactericidal (S. pneumoniae): 86%
MIC (P. aeruginosa ATCC 27853 [8]): 4 µg/mL (≈ 29 µM)
Mutation Frequency 4X MIC (P. aeruginosa ATCC 27853 [8]): 7.2 × 10^−4
Mutation Frequency 8X MIC (P. aeruginosa ATCC 27853 [8]): 1.1 × 10^−5
Mutation Frequency 16X MIC (P. aeruginosa ATCC 27853 [8]): 7.2 × 10^−5
MIC (S. aureus ATCC 29213 [9]): 2 µg/mL (≈ 14.5 µM)
Mutation Frequency 4X MIC (S. aureus ATCC 29213 [9]): 2.6 × 10^−8
Mutation Frequency 8X MIC (S. aureus ATCC 29213 [9]): 5.0 × 10^−8
Mutation Frequency 16X MIC (S. aureus ATCC 29213 [9]): <1.8 × 10^−10

NC[C@H]1O[C@H](O[C@H]2[C@H](O)[C@@H](O[C@H]3O[C@H](CO)[C@@H](O)[C@H](N)[C@H]3O)[C@H](N)C[C@@H]2N)[C@H](N)C[C@@H]1O [Tobramycin]
MIC50 (E. coli): 1 µg/mL (≈ 2.14 µM)
MIC90 (E. coli): 1 µg/mL (≈ 2.14 µM)
MIC range (E. coli): 0.5 to 1 µg/mL
MBC/MIC (E. coli ATCC 25922): 1
MICs [10]: less than 2 μg/ml
MIC50 (Enterobacter spp): 0.5 µg/mL
MIC90 (Enterobacter spp): 8 µg/mL
MIC50 (S. aureus): 0.5 µg/mL (≈ 1.07 µM)
MIC90 (S. aureus): 256 µg/mL (≈ 548 µM)
T1/2, time to inhibit 50% of protein synthesis [1]: > 3 h
protein synthesis inhibition relative to FTI [1]: poor protein synthesis inhibition
Range of MBC/MIC (P. aeruginosa [2]; CF, 8 strains): 1-4
strains against which bactericidal (P. aeruginosa [2]): 100%
Range of MBC/MIC (P. aeruginosa [2]; non-CF, 10 strains): 1-2
MBC/MIC (S. aureus ATCC 29213 [3]): 8
plasma half-life [11]: 1 to 2 h
MIC50 (P. aeruginosa [5]): 2 µg/mL (≈ 4.28 µM)
MIC90 (P. aeruginosa [5]; read-out: MIC90 Mucin (−)): 16 µg/mL (≈ 34.2 µM)
MIC (P. aeruginosa [5]; strain COR-003): 0.5 µg/mL (≈ 1.07 µM)
MIC (P. aeruginosa [5]; strain COR-021): 64 µg/mL (≈ 137 µM)
MIC (P. aeruginosa [5]; strain COR-027): 0.5 µg/mL (≈ 1.07 µM)
MIC (M. catarrhalis; Moraxella catarrhalis): 8 µg/mL (≈ 17.1 µM)
MIC (M. catarrhalis; strain COR-113): 8 µg/mL (≈ 17.1 µM)
MIC50 (S. maltophilia): 64 µg/mL (≈ 137 µM)
MIC90 (S. maltophilia): 256 µg/mL (≈ 548 µM)
MBC/MIC ratios [12]: 8
Mutation Frequency 4x MIC (P. aeruginosa [6]; Mucin + (2%)): no effect
Mutation Frequency 8x MIC (P. aeruginosa [6]; Mucin + (2%)): no effect
Mutation Frequency 16x MIC (P. aeruginosa [6]; Mucin + (2%)): 2 × 10^−5
Mutation Frequency 32x MIC (P. aeruginosa [6]; Mucin + (2%)): 2 × 10^−6
Mutation Frequency 4x MIC (P. aeruginosa [6]; Mucin −): 4 × 10^−7
Mutation Frequency 8x MIC (P. aeruginosa [6]; Mucin −): 9 × 10^−8
Mutation Frequency 16x MIC (P. aeruginosa [6]; Mucin −): >5 × 10^−9
Mutation Frequency 32x MIC (P. aeruginosa [6]; Mucin −): >5 × 10^−9
Range of MBC/MIC (S. pneumoniae): 1-2
strains against which bactericidal (S. pneumoniae): 100%
MIC (P. aeruginosa ATCC 27853 [8]): 0.5 µg/mL (≈ 1.07 µM)
Mutation Frequency 4X MIC (P. aeruginosa ATCC 27853 [8]): 3.0 × 10^−5
Mutation Frequency 8X MIC (P. aeruginosa ATCC 27853 [8]): 2.2 × 10^−7
Mutation Frequency 16X MIC (P. aeruginosa ATCC 27853 [8]): 1.6 × 10^−8
MIC (S. aureus ATCC 29213 [9]): 0.25 µg/mL (≈ 0.535 µM)
Mutation Frequency 4X MIC (S. aureus ATCC 29213 [9]): 1.6 × 10^−7
Mutation Frequency 8X MIC (S. aureus ATCC 29213 [9]): 3.9 × 10^−8
Mutation Frequency 16X MIC (S. aureus ATCC 29213 [9]): <1.8 × 10^−10

Values after ≈ are worked out from the molar mass of the structure shown. Where two headings read alike, the source gives them in different places.
